# The whole screen tested about 310,000 compounds, of which about 14,000 (4.5%) showed an effect of 50% or more. Effects have a minus sign here. Some of the results follow.
# Target: human ether-à-go-go-related gene (hERG) potassium channel (human, UniProt Q12809)
# Assay: primary screen, population patch clamp on CHO cells stably expressing hERG
# 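Note: peak tail current of the secondary pulse compared with the same well before compound.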
# Chain of human ether-à-go-go-related gene (hERG) potassium channel (Q12809 whole entry, looked up): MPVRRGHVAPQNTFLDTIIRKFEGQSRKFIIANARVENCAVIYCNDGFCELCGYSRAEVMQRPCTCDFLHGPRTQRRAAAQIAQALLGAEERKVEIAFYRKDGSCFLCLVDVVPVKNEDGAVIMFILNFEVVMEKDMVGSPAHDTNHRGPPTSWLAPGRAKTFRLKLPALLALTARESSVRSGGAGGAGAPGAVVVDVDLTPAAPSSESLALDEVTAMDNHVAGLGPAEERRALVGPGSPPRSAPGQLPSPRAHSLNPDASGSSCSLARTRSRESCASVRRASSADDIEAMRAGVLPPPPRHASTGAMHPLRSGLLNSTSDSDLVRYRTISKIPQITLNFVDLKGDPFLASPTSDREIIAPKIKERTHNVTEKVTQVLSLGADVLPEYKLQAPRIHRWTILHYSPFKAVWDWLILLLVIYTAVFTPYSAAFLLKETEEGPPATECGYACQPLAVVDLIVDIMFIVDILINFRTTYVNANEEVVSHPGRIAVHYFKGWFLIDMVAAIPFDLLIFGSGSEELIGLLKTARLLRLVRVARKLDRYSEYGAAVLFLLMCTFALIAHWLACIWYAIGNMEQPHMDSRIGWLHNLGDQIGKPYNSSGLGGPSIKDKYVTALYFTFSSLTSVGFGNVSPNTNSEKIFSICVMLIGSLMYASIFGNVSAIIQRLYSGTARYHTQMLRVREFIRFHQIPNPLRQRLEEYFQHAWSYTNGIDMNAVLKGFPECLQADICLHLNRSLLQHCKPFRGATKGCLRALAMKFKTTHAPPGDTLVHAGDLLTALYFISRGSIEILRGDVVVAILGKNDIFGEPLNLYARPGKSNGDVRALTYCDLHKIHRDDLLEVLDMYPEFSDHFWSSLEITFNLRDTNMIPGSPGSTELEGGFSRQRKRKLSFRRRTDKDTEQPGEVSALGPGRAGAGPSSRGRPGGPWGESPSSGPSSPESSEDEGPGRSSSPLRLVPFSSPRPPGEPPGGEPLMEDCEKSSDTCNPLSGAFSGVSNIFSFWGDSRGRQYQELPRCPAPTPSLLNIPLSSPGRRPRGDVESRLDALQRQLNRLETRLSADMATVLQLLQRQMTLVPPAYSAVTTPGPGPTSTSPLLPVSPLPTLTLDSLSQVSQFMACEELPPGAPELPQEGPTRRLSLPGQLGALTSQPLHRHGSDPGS
row,Structure (SMILES),"hERG current change (%, negative = inhibition) at 10uM"
1,O=C(c1ccco1)N1CCN(c2ncnc3c2cnn3-c2ccccc2)CC1,-64.5%
2,COc1ccc(-c2cc(C(=O)N3CCN(C(c4ccccc4)c4ccccc4)CC3)no2)cc1,15.7%
3,CCc1ccc[n+](-c2[nH]c(=O)sc2/C=N/N=C(\N)[O-])c1,-10%
4,CCCCCC#CCC#CCC#CCC#CCCCC(=O)O,-4.57%
5,CC(=O)Oc1cc2oc(=O)cc(C)c2cc1OC(C)=O,-5.64%
6,O=C(c1ccc(S(=O)(=O)N2CCCCC2)cc1)N1CCCC(C(F)(F)F)C1 (stereo not drawn),-12.3%
7,COCCOc1cc(Nc2nnc(C(F)(F)F)s2)c(Cl)cc1Cl,-6.54%
8,COc1ccc(CC(=O)Nc2ccc(-c3noc(-c4ccc(Cl)cc4)n3)cc2)cc1,6.85%
9,COc1ccc(OCc2nc(N)nc(Nc3ccccc3OC)n2)cc1,9.46%
10,O=C(Nc1cccc(Cl)c1)c1cc2c(=O)n3ccccc3nc2s1,-5.71%
11,COc1cc(/C=N/NC(=O)CNc2n[nH]c(=O)[nH]c2=O)ccc1O,-6.93%
12,Nc1ccc(N2CCOCC2)c(Cl)c1,1.49%
13,Cc1cc(Cl)c(S(=O)(=O)Nc2ccc(Cl)cn2)cc1OCC(N)=O,-2.03%
14,CCc1c2ccccc2nn1-c1ccccc1C(=O)C(C)=O,6.31%
15,Cc1ccc(N2C(=O)CC(C)CC2=O)cc1,21.2%
16,Cc1cc(=O)n(Cc2ccccc2)c(O)c1C#N,18.9%
17,Nc1nc(-c2ccccc2)nc2sc3c(c12)CCCC3,11.7%
18,C/C(=N/NS(=O)(=O)c1ccc(C)cc1C)c1c[nH]c2ccccc12,16.5%
19,COc1ccc(CCn2c(NN=C(C)C)nc3c2c(=O)[nH]c(=O)n3C)cc1,13.2%
20,CC(=O)c1ccccc1NS(=O)(=O)c1cccc2nonc12,-52.2%
21,Cc1ccc(CC(=O)NCC(c2ccco2)N(C)C)cc1C (stereo not drawn),4.43%
22,Cn1c(N)c(C(=O)c2ccccc2)c(=O)n(C)c1=O,8.98%
23,O=C(Cn1ccc(NC(=O)OCc2ccccc2)nc1=O)NCCCN1CCCC1=O,4.62%

row,Structure (SMILES),"hERG current change (%, negative = inhibition) at 10uM"
1,NC(=O)c1c(NC(=O)c2cccs2)sc2c1CCCCCC2,-4.02%
2,NC(=O)c1ccc(NC(=O)CC23CC4CC(CC(Br)(C4)C2)C3)cc1,16%
3,CN(C)C=Nc1ccc2nn(-c3ccccc3)nc2c1,-49.9%
4,Cc1ccccc1OCCC(=O)OCC(=O)NCCNC(=O)COC(=O)CCOc1ccccc1C,4.47%
5,NC(=O)c1cc(S(=O)(=O)NCCCc2ccccc2)cs1,2.34%
6,COc1ccc(NS(=O)(=O)c2cccc(C(=O)NCC(c3ccccc3OC)N3CCCC3)c2)cc1 (stereo not drawn),-55.4%
7,Cc1nnc(NC(=O)c2cccc(Br)c2)s1,-1.04%
8,CCOC(=O)c1cc2c(nc1NC(=S)NCc1ccccc1)CCCC2,-11.3%
9,Cn1c(-c2ccc3c(c2)OCO3)cc(=O)c2ccccc21,-3.23%
10,CC12CCC(C(=O)Nc3cccnc3)(CC1=O)C2(C)C (stereo not drawn),11.6%
11,COCCn1c(C)cc(C(=O)CSc2nnc(C3CC3)n2C2CC2)c1C,5.4%
12,COC(=O)N/N=C/c1cn(CC(C)COc2ccccc2)c2ccccc12 (stereo not drawn),16.6%
13,CC(C)(C)c1ccc(C(=O)Nc2nonc2-c2nc3ccccc3[nH]2)cc1,12.8%
14,CC1(C)CC(=O)C2=C(C1)OC(N)=C(C#N)[C@@]21C(=O)N(CC(N)=O)c2ccccc21,12.1%
15,CCOC(=O)CC1C(=O)NCCN1C(=O)c1cc2c(=O)n3ccccc3nc2s1 (stereo not drawn),0.456%
16,CCCN(CCC)CCNc1c(N2CCN(C(=O)OCC)CC2)c(=O)c1=O,-32.4%
17,COc1ccc(OC)c(/C=N/NC(=O)c2cnccn2)c1,1.45%
18,Cc1ccc(OCc2n[nH]c(=S)n2-c2ccc(C)cc2)cc1,13.1%
19,COc1ccc(C(=O)CSc2nnc3ccc(-c4ccccn4)nn23)cc1,15%
20,Cl.OCCNCc1ccc(-c2ccccc2)cc1,-9.74%
21,COc1ccc2cc(C(=O)O)ccc2c1,-9.21%
22,Cc1nn(-c2ccccc2)c2nc(C(F)F)cc(C(F)F)c12,16.2%
23,c1ccc(Cn2nnc3c(NCCN4CCOCC4)ncnc32)cc1,7.49%

row,Structure (SMILES),"hERG current change (%, negative = inhibition) at 10uM"
1,COc1ccc(-c2csc(NC(=O)c3ccccc3S(C)(=O)=O)n2)cc1,10.7%
2,CCCC(=O)NNC(=O)Nc1ccccc1,19.8%
3,Cc1cc(SCNC(=O)c2ccccc2)nc(C(C)C)n1,35.9%
4,COc1ccc(CNc2nc(-c3ccccc3)nc3ccccc23)cc1OC,18.2%
5,O=C(NCc1ccc2c(c1)OCO2)Nc1ccc2ccccc2c1,9.75%
6,C/C(CC(=O)Nc1ccc(OCc2ccccc2)cc1)=N\NC(=O)C(=O)Nc1ccc(C)c(Cl)c1,12.9%
7,Cc1ccccc1NCc1nnc2n1CCCCC2,13.7%
8,CCCc1cc(C(N)=O)c(NC(=O)c2ccoc2C)s1,-9.27%
9,Cc1nc2nc(C)c(CCC(=O)N3CCc4ccccc43)c(C)n2n1,-63.5%
10,C/C(CC(=O)Nc1ccc2c(c1)OCCO2)=N\NC(=O)COc1ccc(C)cc1Br,-36.9%
11,COc1ccc(C(=O)CCNc2cccc(Cl)c2)cc1,3.99%
12,CCCN(C1CCS(=O)(=O)C1)S(=O)(=O)c1cc(OC)ccc1OC (stereo not drawn),-2.94%
13,CN(C)c1ccc(C(=O)N(Cc2ccccc2)Cc2ccccc2)cc1,9.53%
14,COc1cc(C(=O)N/C(=C\c2cn(C)c3ccccc23)C(=O)NCCCO)cc(OC)c1OC,23.4%
15,CC(C)(C)C(=O)Nc1nnc(SCC(=O)Nc2nccs2)s1,16.2%
16,COC1OC(COC(=O)CNC(=O)OC(C)(C)C)C(O)C(O)C1O (stereo not drawn),5.13%
17,Cc1cc(Cl)ccc1NC(=S)NCc1ccc(Cl)cc1,6.89%
18,COc1ccccc1CNC(=O)CN(CCc1ccccc1)S(C)(=O)=O,-18.3%
19,COc1ccc(-c2[nH]nc3c2C(c2ccncc2)C(C#N)=C(N)O3)cc1 (stereo not drawn),15.6%
20,COc1ccc(C(C(C(=O)c2ccco2)N2CCOCC2)N2CCOCC2)cc1 (stereo not drawn),0.33%
21,COc1ccc(N2CCN(S(=O)(=O)c3ccc4c(c3)NC(=O)CC(=O)N4)CC2)cc1,13.2%
22,O=C(NCc1cccnc1)[C@@H]1CC=C[C@@H]2CCN(Cc3ccc(Cl)c(Cl)c3)C(=O)[C@@H]21,-34.6%
23,Cc1ccc(NC(=O)/C=C/C(=O)O)c([N+](=O)[O-])c1,-67%

row,Structure (SMILES),"hERG current change (%, negative = inhibition) at 10uM"
1,CCOc1cc(NC(=S)Nc2ccccc2)c(OCC)cc1NC(=O)c1ccc(OC)cc1,11.1%
2,Cc1c(C(=O)NCCCN2CCCC2=O)oc2c(Cl)cccc12,-3.64%
3,O=C(NC1(C(F)(F)F)NC(=O)N(Cc2ccccc2)C1=O)c1cccs1 (stereo not drawn),0.00138%
4,Nc1nc(NCCCN2CCOCC2)nc(Nc2cccc(Cl)c2)c1[N+](=O)[O-],-40%
5,C=CCc1cccc(/C=N/n2c(C)nnc2C)c1O,15.7%
6,CSc1cccc(Nc2ccc(S(=O)(=O)N3CCOCC3)cc2[N+](=O)[O-])c1,-30.8%
7,CC(=O)c1sc(NC(=O)C2CC(=O)N(Cc3ccco3)C2)nc1-c1ccccc1 (stereo not drawn),-59.4%
8,CCCc1nc2sc3c(c2c(=O)n1NC(=O)CCCl)CCCC3,0.756%
9,CC(=O)NC1C(OCc2cccc(Br)c2)OC(COC(C)=O)C(OC(C)=O)C1OC(C)=O (stereo not drawn),-12.4%
10,COc1ccccc1NC(=O)c1ccccc1NS(C)(=O)=O,-1.12%
11,O=C(Nc1ccc(Cl)cc1-c1nc2ccccc2s1)c1ccco1,17.6%
12,Cc1ccc(C(=O)CCC(=O)N2CCC(C(N)=O)CC2)s1,20.5%
13,COc1cccc(-c2nnc(SCC(=O)N(C(C)C)C(C)C)o2)c1,9.35%
14,Cc1nn(-c2ccccc2)c2c1C(c1ccco1)C(C#N)=C(N)O2 (stereo not drawn),6.04%
15,Cc1ccc(CNS(=O)(=O)CCNC(=O)c2ccccc2)cc1,-33.5%
16,O=C(CSc1nc2c(sc3ccccc32)c(=O)n1CCCN1CCCC1)NCC1CCCO1 (stereo not drawn),-61.6%
17,Cn1cccc1Cc1nnc(SCC(=O)N2CCN(c3ccccc3)CC2)n1-c1ccc(F)cc1,-0.751%
18,O=C(Nc1ccc2c(c1)OCO2)c1cccs1,20.1%
19,O=C(/C=C/c1ccc(Cl)cc1Cl)OCC(=O)N1CCCC1,-17.3%
20,CC(=O)Oc1c(C(C)C)cc(N(C(C)=O)c2ccccc2)cc1C(C)C,2.98%
21,Cc1noc(C)c1-c1nc(CS(=O)(=O)c2ccc(Cl)cc2)no1,-3.59%

# Source: article PMC4336329 (PLoS ONE, 2015)
